Results as given in patent publication US20180289802A1 (CELGENE, published 2018).

Key:
[1] = target: T1, cynomolgus PD-1 expressed on cells (cynomolgus monkey, UniProt B0LAJ3 25-288); experiment: cell-based or functional assay
[2] = target: T1, cynomolgus PD-1 expressed on cells; experiment: flow cytometry on CHO cells expressing cynomolgus PD-1; detection with anti-human IgG Fc (PE); x axis 'Primary Ab conc (nM)' with log ticks -3 to 3
[3] = target: T1, cynomolgus PD-1 expressed on cells; experiment: flow cytometry on CHO cells expressing cynomolgus PD-1, anti-human IgG Fc detection
[4] = target: T2, human PD-1 expressed on cells (human, UniProt Q15116 partial chain); experiment: flow cytometry on CHO cells expressing human PD-1, anti-human IgG Fc detection
T2 construct: also called human PD-1-CHO cells; CHO cells expressing human PD-1

[5] = target: T2, human PD-1 expressed on cells; experiment: flow cytometry on CHO cells expressing human PD-1; detection with anti-human IgG Fc (PE); x axis 'Primary Ab conc (nM)' with log ticks -3 to 3
[6] = target: T3, human PD-1 extracellular domain (residues 32-160), expressed in E. coli and refolded (human, UniProt Q15116 partial chain); experiment: Biacore T200; antibody captured on Fc-specific anti-human IgG; human PD-1 (32-160) flowed at 100 nM to 200 pM
T3 construct: also called PD1_002; internally produced human PD1 antigen

[7] = target: T4, FcγRIIIa (V158) expressed on cells (UniProt P08637); experiment: Cisbio Tag-lite displacement (FRET) on HEK293 cells expressing terbium-labelled FcγRIIIa (V158); competitor human IgG-d2
T4 construct: whole, on cells; also called FcγRIIIaV158-CHO

[8] = target: T5, FcγRI expressed on cells (UniProt P12314); experiment: Cisbio Tag-lite displacement (FRET) on HEK293 cells expressing terbium-labelled FcγRI; competitor human IgG-d2
T5 construct: whole, on cells; In the HEK293 Tag-lite assay the receptor was prelabeled with a terbium donor dye; also called FcγRI-CHO; HEK293 cells expressing FcγRI

[9] = target: T6, FcγRIIb (The Tag-lite receptor carries a labelling tag with a terbium donor dye; its letters are not given in the patent and are left out.); experiment: Cisbio Tag-lite displacement (FRET) on HEK293 cells expressing terbium-labelled FcγRIIb; competitor human IgG-d2
T6 construct: also called FcγRIIb expressed on HEK293 cells
T6 chain: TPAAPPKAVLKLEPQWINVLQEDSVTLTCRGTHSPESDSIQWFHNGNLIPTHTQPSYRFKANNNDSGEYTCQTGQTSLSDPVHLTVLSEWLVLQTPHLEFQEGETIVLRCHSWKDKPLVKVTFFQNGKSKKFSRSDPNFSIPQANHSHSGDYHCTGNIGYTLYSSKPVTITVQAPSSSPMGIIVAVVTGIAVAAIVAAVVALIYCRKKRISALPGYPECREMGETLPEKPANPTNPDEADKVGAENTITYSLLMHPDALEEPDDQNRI

[10] = target: T5, FcγRI expressed on cells; experiment: FACS on FcγRI-CHO cells; detection with PE-conjugated F(ab')2 goat anti-human antibody; table row 'FcgR1'
[11] = target: T3, human PD-1 extracellular domain …; experiment: Biacore T200; antibody captured on Fc-specific anti-human IgG; human PD-1 (32-160) flowed at 100 nM to 200 pM; remark: listed apart in the source

T1 sequence (B0LAJ3 entry or part of it limits assumed): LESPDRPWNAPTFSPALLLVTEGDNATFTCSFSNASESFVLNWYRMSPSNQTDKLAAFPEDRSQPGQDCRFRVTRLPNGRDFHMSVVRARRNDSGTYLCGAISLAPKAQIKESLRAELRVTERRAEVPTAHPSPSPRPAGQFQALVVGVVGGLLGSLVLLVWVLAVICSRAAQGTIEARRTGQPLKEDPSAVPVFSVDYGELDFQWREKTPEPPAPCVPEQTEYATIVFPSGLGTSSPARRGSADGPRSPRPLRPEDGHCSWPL
T5 sequence (P12314 16-374 limits assumed): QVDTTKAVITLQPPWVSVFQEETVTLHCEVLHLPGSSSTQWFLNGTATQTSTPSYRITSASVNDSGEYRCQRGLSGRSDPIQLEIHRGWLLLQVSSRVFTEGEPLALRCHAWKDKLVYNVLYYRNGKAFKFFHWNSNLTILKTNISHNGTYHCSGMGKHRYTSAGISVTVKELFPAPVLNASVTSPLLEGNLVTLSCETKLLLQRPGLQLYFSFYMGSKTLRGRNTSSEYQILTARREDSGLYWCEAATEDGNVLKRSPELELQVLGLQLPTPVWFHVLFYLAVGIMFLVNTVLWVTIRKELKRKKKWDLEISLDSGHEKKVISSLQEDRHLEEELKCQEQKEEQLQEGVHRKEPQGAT
T2 sequence (Q15116 25-198 limits assumed): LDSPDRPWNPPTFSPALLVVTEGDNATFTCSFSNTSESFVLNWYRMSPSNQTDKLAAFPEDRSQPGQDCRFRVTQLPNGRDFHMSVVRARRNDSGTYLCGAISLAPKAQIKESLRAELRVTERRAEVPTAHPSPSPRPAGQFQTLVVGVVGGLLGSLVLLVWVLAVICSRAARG
T4 sequence (P08637 17-254 F176V limits assumed): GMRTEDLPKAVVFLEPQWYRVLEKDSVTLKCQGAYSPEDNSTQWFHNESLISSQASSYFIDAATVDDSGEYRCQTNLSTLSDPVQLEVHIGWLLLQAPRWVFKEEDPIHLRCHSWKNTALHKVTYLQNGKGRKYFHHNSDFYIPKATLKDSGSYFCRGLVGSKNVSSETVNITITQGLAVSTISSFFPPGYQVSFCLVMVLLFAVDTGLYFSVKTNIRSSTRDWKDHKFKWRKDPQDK

IL-2 EC50 (nM), cynomolgus PBMC assay, NHP1 [1]: 0.28 nM | IL-2 EC50 (nM), cynomolgus PBMC assay, NHP2 [1]: 4.9 nM | LogEC50 [2]: 0.806 log nM | EC50 [3]: 0.8 nM | EC50 [4]: 0.4 nM | LogEC50 [5]: 0.431 log nM | Kd [6]: ~19 nM
B1: PD1AB-6-IgG1 (antibody)
heavy: EVQLVQSGAEVKKPGATVKISCKASGFNIKDTYMHWVQQAPGKGLEWMGRIDPANGDRKYDPKFQGRVTITADTSTDTAYMELSSLRSEDTAVYYCARSGPVYYYGSSYVMDYWGQGTTVTVSS[human IgG1 constant region not written out]
light: DIVMTQSPDSLAVSLGERATINCKSGQSVLYSSNQKNFLAWYQQKPGQPPKLLIYWASTRESGVPDRFSGSGSGTDFTLTISSLQAEDVAVYYCHQYLYSWTFGQGTKLEIKRTVAAPSVFIFPPSDEQLKSGTASVVCLLNNFYPREAKVQWKVDNALQSGNSQESVTEQDSKDSTYSLSSTLTLSKADYEKHKVYACEVTHQGLSSPVTKSFNRGEC
notes: also called IgG1_PD1AB-6; IgG1-PD1AB-6

EC50 [7]: 6330 nM | EC50 [8]: 869 nM | EC50 [9]: 7180 nM | EC50 [10]: 12.4 nM | IL-2 EC50 (nM), cynomolgus PBMC assay, NHP1 [1]: < 0.1 nM | IL-2 EC50 (nM), cynomolgus PBMC assay, NHP2 [1]: 1.24 nM | IL-2 EC50 (nM), cynomolgus PBMC assay, NHP3 [1]: 16.5 nM | IL-2 EC50 (nM), cynomolgus PBMC assay, NHP4 [1]: 1.23 nM | Kd [11]: ~22 nM
B2: PD1AB-6-4P (antibody, human IgG4 S228P, kappa)
heavy: EVQLVQSGAEVKKPGATVKISCKASGFNIKDTYMHWVQQAPGKGLEWMGRIDPANGDRKYDPKFQGRVTITADTSTDTAYMELSSLRSEDTAVYYCARSGPVYYYGSSYVMDYWGQGTTVTVSSASTKGPSVFPLAPCSRSTSESTAALGCLVKDYFPEPVTVSWNSGALTSGVHTFPAVLQSSGLYSLSSVVTVPSSSLGTKTYTCNVDHKPSNTKVDKRV[human IgG4 Fc with S228P L445P (EU numbers) not written out]
light: B1 light
notes: IgG4 backbone with S228P; also called PD1AB-6IgG4P

Where two headings read alike, the source gives them in different places. One block for each binder: values may come before it.
